Values belong to the binder of their own block, whether it stands above or below them.
Tests used:
[1] = target: T1, TGFα (UniProt P01135 40-89); test: trap coated on 96 well plate, varying TGFα, detection antibody; Std Error Kd 266.2 nM
T1 construct: Soluble ligand incubated with the coated traps; also called Transforming Growth Factor α
Procedure: (§1) Purified trap molecules were coated on 96 well plates and incubated with either TGFα or HRG1β. Then detection antibodies against TGFα or HRG1β were used to measure the affinity (Kd) and amount of bound ligand (Bmax).
(§2) Traps were coated on 96 well plates and incubated with varying concentrations of either TGFα or HRG1β. Detection antibodies against TGFα or HRG1β were used to measure the affinity (Kd) and amount of bound ligand (Bmax).

[2] = target: T1, TGFα; test: trap coated on 96 well plate, varying TGFα, detection antibody; Std Error Kd 116.3 nM
Procedure: as §1, §2

[3] = target: T2, HRG1β (UniProt Q02297-6 177-241, limits assumed); test: trap coated on 96 well plate, varying HRG1β, detection antibody; Std Error Kd 1.255 nM
T2 construct: Soluble ligand incubated with the coated traps; also called heregulin
T2 sequence (looked up): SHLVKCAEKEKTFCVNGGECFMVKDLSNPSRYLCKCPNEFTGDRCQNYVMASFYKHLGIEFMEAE
Procedure: as §1, §2

[4] = target: T2, HRG1β; test: trap coated on 96 well plate, varying HRG1β, detection antibody; Std Error Kd 2.055 nM
Procedure: as §1, §2

[5] = target: T2, HRG1β; test: trap coated on 96 well plate, varying HRG1β, detection antibody; Std Error Kd 3.932 nM
Procedure: as §1, §2

[6] = target: T1, TGFα; test: trap coated on 96 well plate, varying TGFα, detection antibody; Std Error Kd 149 nM
Procedure: as §1, §2

[7] = target: T1, TGFα; test: trap coated on 96 well plate, varying TGFα, detection antibody; Std Error Kd 250.5 nM
Procedure: as §1, §2

[8] = target: T2, HRG1β; test: trap coated on 96 well plate, varying HRG1β, detection antibody; Std Error Kd 3.375 nM
Procedure: as §1, §2

[9] = target: T2, HRG1β; test: trap coated on 96 well plate, varying HRG1β, detection antibody; Std Error Kd 8.175 nM
Procedure: as §1, §2

[10] = target: T1, TGFα; test: trap coated on 96 well plate at one half of the amount, varying TGFα, detection antibody; Std Error Kd 1208 nM
Procedure: as §1, §2

[11] = target: T2, HRG1β; test: trap coated on 96 well plate at one half of the amount, varying HRG1β, detection antibody; Std Error Kd 2.366 nM
Procedure: as §1, §2

T1 sequence (P01135 40-89 limits assumed): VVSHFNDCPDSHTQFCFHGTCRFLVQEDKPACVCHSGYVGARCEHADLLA

Kd [1]: 677 nM
Kd [2]: 345 nM
Kd [3]: 13.1 nM
Kd [4]: 17.3 nM
Kd [5]: 23.8 nM
B1: E1/E4-Fc (construct from Example 19: ErbB4 […], ErbB1 […], fused to IgG2Fc) (Fc fusion)
chain: QSVCAGTENKLSSLSDLEQQYRALRKYYENCEVVMGNLEITSIEHNRDLSFLRSVREVTGYVLVALNQFRYLPLENLRIIRGTKLYEDRYALAIFLNYRKDGNFGLQELGLKNLTEILNGGVYVDQNKFLCYADTIHWQDIVRNPWPSNLTLVSTNGSSGCGRCHKSCTGRCWGPTENHCQTLTRTVCAEQCDGRCYGPYVSDCCHRECAGGCSGPKDTDCFACMNFNDSGACVTQCPQTFVYNPTTYQMDVNPEGKYSFGATCVKKCPR[about 250 residues omitted]VECPPCPAPPVAGPSVFLFPPKPKDTLMISRTPEVTCVVVDVSHEDPEVQFNWYVDGMEVHNAKTKPREEQFNSTFRVVSVLTVVHQDWLNGKEYKCKVSNKGLPAPIEKTISKTKGQPREPQVYTLPPSREEMTKNQVSLTCLVKGFYPSDIAVEWESNGQPENNYKTTPPMLDSDGSFFLYSKLTVDKSRWQQGNVFSCSVMHEALHNHYTQKSLSLSPGK
notes: also called E1/E4-Fc BATCH1; E1/E4-Fc BATCH 2

Kd [6]: 406 nM
Kd [7]: 621 nM
Kd [8]: 27.8 nM
Kd [9]: 26.6 nM
Kd [10]: 1950 nM
Kd [11]: 15.5 nM
B2: E1/E4-MFc (construct from Example 20: ErbB4 […], ErbB1 […], fused to IgG2Fc with C226S and C229S in the hinge) (Fc fusion)
chain: QSVCAGTENKLSSLSDLEQQYRALRKYYENCEVVMGNLEITSIEHNRDLSFLRSVREVTGYVLVALNQFRYLPLENLRIIRGTKLYEDRYALAIFLNYRKDGNFGLQELGLKNLTEILNGGVYVDQNKFLCYADTIHWQDIVRNPWPSNLTLVSTNGSSGCGRCHKSCTGRCWGPTENHCQTLTRTVCAEQCDGRCYGPYVSDCCHRECAGGCSGPKDTDCFACMNFNDSGACVTQCPQTFVYNPTTYQMDVNPEGKYSFGATCVKKCPR[about 250 residues omitted]VESPPSPAPPVAGPSVFLFPPKPKDTLMISRTPEVTCVVVDVSHEDPEVQFNWYVDGMEVHNAKTKPREEQFNSTFRVVSVLTVVHQDWLNGKEYKCKVSNKGLPAPIEKTISKTKGQPREPQVYTLPPSREEMTKNQVSLTCLVKGFYPSDIAVEWESNGQPENNYKTTPPMLDSDGSFFLYSKLTVDKSRWQQGNVFSCSVMHEALHNHYTQKSLSLSPGK
notes: also called E1/E4M-50%; E1/E4-MFc 50%

— US20150247135A1 (LIGACEPT, published 2015)
